According to PubChem BioAssay AID624417 (National Center for Advancing Translational Sciences (NCATS), 2012):
The campaign covered roughly 410,000 compounds. About 6,400 (1.6%) were called active. The shares of active, inactive and inconclusive entries below differ from those in the screen. The call rests on the fitted dose curve; in most records, active means well fitted inhibition curve with a large enough effect; inconclusive means small, poorly fitted or top-dose-only effect; inactive means no such curve, though single readings can be large or run the other way. Where the call is inconclusive, the potency comes from a doubtful curve fit.

biological target: Glucagon-like peptide 1 receptor (Homo sapiens) (UniProt P43220); assay: qHTS of GLP-1 Receptor Inverse Agonists (Inhibition Mode); settings: HEK293 GLP-1R CRE-luciferase, luminescence, 24 h, GLP-1R form is constitutively active; activity change, negative = inhibition: at 38.3 µM (top of the series) unless noted; further: nearly all actives have a fitted effect of over 55% in size
UniProt P43220, sequence (P43220 whole entry, looked up): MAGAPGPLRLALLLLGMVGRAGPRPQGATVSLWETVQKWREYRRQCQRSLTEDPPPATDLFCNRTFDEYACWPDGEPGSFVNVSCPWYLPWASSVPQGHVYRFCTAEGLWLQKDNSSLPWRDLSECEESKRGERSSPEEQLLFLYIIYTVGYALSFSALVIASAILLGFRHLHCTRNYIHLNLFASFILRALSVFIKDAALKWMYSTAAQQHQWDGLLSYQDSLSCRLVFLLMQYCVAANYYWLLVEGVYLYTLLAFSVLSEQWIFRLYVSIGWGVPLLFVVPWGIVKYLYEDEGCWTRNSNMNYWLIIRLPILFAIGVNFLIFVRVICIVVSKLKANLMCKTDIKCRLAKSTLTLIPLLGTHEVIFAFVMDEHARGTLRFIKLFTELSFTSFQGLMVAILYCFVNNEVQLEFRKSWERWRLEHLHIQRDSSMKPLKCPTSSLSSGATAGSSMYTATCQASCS
How it was run: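 HEK293 cells stably co-expressing constitutively active GLP-1R and a cAMP-responsive luciferase reporter were seeded in DMEM with 10% Nu serum, given compounds after 12 h, and incubated 24 h at 37 deg C. Luminescence was then read.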
On the % scale 0 is the no-effect control and ±100 the full control effect; potency means the concentration at half of the fitted maximal effect; tags describe the fitted curve by direction and shape.

Potency, inconclusive:
O=C(NCc1ccc(F)cc1)c1cc(C2CCCCN2C(=O)CCCc2ccccc2)on1 (stereo not drawn) 31.6 µM [inhibitor, single point]
CC1(C2CC2)NC(=O)N(CC(=O)Nc2ccc(SC(F)F)cc2)C1=O (stereo not drawn) 1 µM [inhibitor, full curve, poor fit]
CCOC(=O)c1c(NC(=O)CSc2nnc(-c3cccc(C)c3)n2CC)sc(C(C)=O)c1C 3.98 µM [inhibitor, partial curve, poor fit]
CCc1ccc(NC(=O)CN2C(=O)C(c3ccc(F)cc3)=NC2(C)C)cc1 12.6 µM [inhibitor, single point]
COc1ccc(C(=O)NC(=S)NC(C)c2ccccc2)cc1 (stereo not drawn) 2.82 µM [inhibitor, partial curve, poor fit]
CC(C)(C)c1ccccc1OCC(=O)Nc1ccccc1C(=O)NCc1cccnc1 0.891 µM [inhibitor, full curve, poor fit]
CC(NC(=O)C1C(=O)N(CCO)C2(C)CC1c1ccccc1O2)c1ccccc1 (stereo not drawn) 28.2 µM [inhibitor, single point]
COc1ccccc1N1CCN(c2ccnc3cc(Cl)ccc23)CC1 3.16 µM [inhibitor, full curve]
COc1ccc(C)cc1NC(=O)CNC(c1ccccc1)c1ccccc1 3.98 µM [inhibitor, full curve]
O=C(CCN1C(=O)/C(=C\c2ccccc2)SC1=S)NNC(=O)c1ccccc1O 31.6 µM [inhibitor, single point]
CCc1ccccc1OCC(=O)Nc1cc(S(=O)(=O)N(CC)CC)ccc1N1CCOCC1 28.2 µM [inhibitor, single point]
COc1ccc(CCNc2ncnc3c2c(-c2ccccc2)cn3-c2ccc(F)cc2)cc1OC 28.2 µM [inhibitor, single point]
CCOC(=O)C1=C[C@@H](C(C)(C)C)N(S(=O)(=O)c2ccccc2C)[C@H]1c1ccc(Cl)cc1 12.6 µM [inhibitor, single point]
Cc1ccc(CNC(=O)c2[nH]c(C(F)(F)F)nc2-c2ccccc2)cc1 10 µM [inhibitor, partial curve, poor fit]
Cc1cc(C)c(C#N)c(SCC(=O)c2ccc(Cl)cc2Cl)n1 28.2 µM [inhibitor, single point]
Cc1ccc(S(=O)(=O)n2nccc2-c2c(-c3ccc(Cl)cc3)noc2C)cc1 12.6 µM [inhibitor, partial curve, poor fit]
CC(C)(C)OC(=O)[C@H](Cc1ccccc1)NC(=O)c1nc[nH]c1C(=O)N1CCc2ccccc2C1 31.6 µM [inhibitor, single point]
Cc1cc(NC(=S)NC(=O)C2CC2)ccc1Br 11.2 µM [inhibitor, partial curve, poor fit]
CC(C)Nc1nc(N)c(C(=O)C23CC4CC(CC(C4)C2)C3)s1 0.891 µM [inhibitor, full curve, poor fit]
O=C(CC1SC(N2CCCCC2)=NC1=O)Nc1cccc(C(F)(F)F)c1 (stereo not drawn) 11.2 µM [inhibitor, single point]
CC(C)(C)NC(=O)c1cc(NC(=O)c2cccs2)cc(NC(=O)c2cccs2)c1 12.6 µM [inhibitor, single point]
Cc1cccc(C(=O)N2CCc3cc(CNC(=O)Cc4ccc(F)cc4)ccc32)c1 17.8 µM [inhibitor, single point]
CCOC(=O)C(C)/C(C)=N/NC(N)=S (stereo not drawn) 0.891 µM [inhibitor, full curve, poor fit]
O=C(c1cc2ccccc2cc1O)N1CCN(c2ccc([N+](=O)[O-])cc2)CC1 12.6 µM [inhibitor, single point]
CC(C)CCC1(CCNC(=O)c2cccs2)CCOC(C)(C)C1 (stereo not drawn) 28.2 µM [inhibitor, single point]
COc1ccc(NC(=S)N2CCN(C/C=C/c3ccccc3)CC2)c(OC)c1 7.94 µM [inhibitor, partial curve, poor fit]
O=C1CC(c2ccccc2)CC(O)=C1C=NCc1ccccc1Cl (stereo not drawn) 1.26 µM [inhibitor, full curve, poor fit]
COc1ccc(C(=O)Nc2nc3c(s2)CCc2cc(OC)ccc2-3)cc1 28.2 µM [inhibitor, single point]
Cc1ccccc1C(=O)Nc1ccccc1Sc1ccccc1 11.2 µM [inhibitor, partial curve, poor fit]

Activity change, negative = inhibition, inactive:
CCOC(=O)c1ccc(NC(=O)CSc2nc3ccccc3c(=O)n2CCNC(C)=O)cc1 0.895%
CCN(CC(=O)Nc1ccccc1C(F)(F)F)CC(=O)c1[nH]c(C)c(C(C)=O)c1C 12.2%
CC1=C(C(=O)Nc2cccnc2)C(c2ccccc2)n2nc(SCc3ccccc3Cl)nc2N1 (stereo not drawn) 17.3%
Cc1c(O)nc(SC2CC(=O)N(c3cc(Cl)cc(Cl)c3)C2=O)[nH]c1=O (stereo not drawn) 4.12%
CC(=O)N(C)c1ccc(OCC(O)COc2ccc(N(C)C(C)=O)cc2)cc1 16.4%
COc1cc(OC)cc(C(=O)Nc2ccn(C)n2)c1 13%
CCOC(=O)N1CCC(N2C(=O)c3ccccc3C2Nc2cc(OC)c(OC)c(OC)c2)CC1 (stereo not drawn) 11.1%
COc1ccc(C(=O)NCC2OCCc3ccccc32)c(O)c1 (stereo not drawn) -4.14%
O=C(O)CCCc1nc(-c2ccccc2)no1 2.28%
Cc1ccc(Cc2nc3ccccc3nc2SCC(=O)NCc2ccc(F)cc2)cc1 7.37%
COc1ccc(NC(=S)Nc2ccc3nccnc3c2)cc1 3.25%
NC1=NC(=Nc2ccc(S(=O)(=O)N3CCOCC3)cc2)c2ccccc21 38.4%
Cc1ccc(-n2ncc3c(N4CCN(CCO)CC4)ncnc32)cc1Cl -22%
Cc1ccc(S(=O)(=O)Nc2nc(-c3ccccc3)cs2)cc1 -24.2%
